Results as given in paper PMC4336329 (PLoS ONE, 2015).
Screen size: about 310,000 compounds; about 14,000 (4.5%) showed an effect of 50% or more. The effect is printed as a negative number. This is one part of the list.

Molecular target: human ether-à-go-go-related gene (hERG) potassium channel (human, UniProt Q12809)
Assay: primary screen, population patch clamp on CHO cells stably expressing hERG
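Also: peak tail current of the secondary pulse compared with the same well before compound.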

Chain of human ether-à-go-go-related gene (hERG) potassium channel (Q12809 whole entry, looked up): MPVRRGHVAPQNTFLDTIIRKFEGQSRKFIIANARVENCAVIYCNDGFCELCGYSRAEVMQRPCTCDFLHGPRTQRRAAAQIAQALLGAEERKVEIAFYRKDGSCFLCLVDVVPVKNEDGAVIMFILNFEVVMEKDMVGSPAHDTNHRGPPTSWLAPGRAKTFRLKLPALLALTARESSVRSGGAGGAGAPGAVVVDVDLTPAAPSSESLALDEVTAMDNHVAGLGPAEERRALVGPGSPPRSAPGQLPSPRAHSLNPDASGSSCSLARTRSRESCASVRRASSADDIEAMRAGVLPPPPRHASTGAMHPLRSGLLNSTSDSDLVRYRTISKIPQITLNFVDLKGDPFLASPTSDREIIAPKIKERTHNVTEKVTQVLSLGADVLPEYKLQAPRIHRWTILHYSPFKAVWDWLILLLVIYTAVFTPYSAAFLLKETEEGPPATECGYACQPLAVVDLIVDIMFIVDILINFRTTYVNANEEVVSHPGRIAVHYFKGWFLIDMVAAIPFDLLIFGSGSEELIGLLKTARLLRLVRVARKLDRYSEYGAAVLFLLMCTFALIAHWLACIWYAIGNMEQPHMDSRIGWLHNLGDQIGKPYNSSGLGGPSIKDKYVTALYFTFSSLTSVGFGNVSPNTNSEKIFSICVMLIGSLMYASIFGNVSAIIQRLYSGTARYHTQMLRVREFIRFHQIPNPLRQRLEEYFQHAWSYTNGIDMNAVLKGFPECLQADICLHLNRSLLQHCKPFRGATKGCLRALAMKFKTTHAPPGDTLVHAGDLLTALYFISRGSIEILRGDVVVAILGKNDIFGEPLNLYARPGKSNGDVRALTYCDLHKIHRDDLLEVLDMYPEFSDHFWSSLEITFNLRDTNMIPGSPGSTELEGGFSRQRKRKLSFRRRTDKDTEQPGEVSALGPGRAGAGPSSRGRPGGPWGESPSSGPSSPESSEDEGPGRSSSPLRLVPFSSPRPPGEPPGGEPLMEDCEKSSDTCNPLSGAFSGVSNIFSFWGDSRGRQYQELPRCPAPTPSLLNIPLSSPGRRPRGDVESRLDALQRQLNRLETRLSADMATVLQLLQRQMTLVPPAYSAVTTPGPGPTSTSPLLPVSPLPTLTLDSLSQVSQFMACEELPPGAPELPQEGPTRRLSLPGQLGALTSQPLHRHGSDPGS

SMILES	hERG current change (%, negative = inhibition) at 10uM
Cc1onc(-c2c(Cl)cccc2Cl)c1C(=O)NC(=S)Nc1sc2c(c1C(N)=O)CCC(C)C2 (stereo not drawn)	6.51%
Cc1ccc(-c2csc3ncnc(N4CCN(C(=O)c5ccco5)CC4)c23)cc1	-89.9%
CC1(c2ccccc2)NC(=O)N(CC(=O)N2CCN(S(=O)(=O)c3ccccc3[N+](=O)[O-])CC2)C1=O (stereo not drawn)	10.7%
COc1c(Cl)cc(Br)c(OC)c1C(=O)NC(=O)Nc1nc(C)cc(C)n1	12.7%
Cc1ccc(-n2nnc3c(=O)n(CC(N)=O)cnc32)cc1	3.72%
COc1cccc(CN2C(=O)C(C)N(C(=O)c3ccccc3)c3ccccc32)c1 (stereo not drawn)	-5.44%
COc1ccc(C(=O)Nc2cccc3c2CCCC3)cc1OC	4.99%
COc1ccc(N2CCN(C(=O)c3ccc4c(c3)NC(=O)C(CSCc3ccc(C)cc3)N4)CC2)cc1 (stereo not drawn)	20.2%
CCCc1ccc(C(=O)NNc2cc(Cl)ccc2Cl)cc1	4.07%
Cc1cc(C)n(-c2nc3ccccc3nc2N2CCOCC2)n1	7.3%
O=C(O)CSCC(=O)N(c1ccccc1)c1ccccc1	18.4%
Cc1nn(-c2ccc(C(=O)Nc3nnc(C4CC4)s3)cc2)c(C)c1Cl	0.502%
COc1ccc(-c2nnn(CCC(=O)O)n2)cc1	3.09%
Cc1nc2nc(C)c(NS(=O)(=O)c3cccs3)c(=O)n2[nH]1	17.3%
Cc1cc(C(=O)NNC(=O)Nc2cccc(C(F)(F)F)c2)no1	14.4%
NC(=O)COC(=O)c1c2c(nc3ccccc13)CCCCC2	-23.2%
N#Cc1nc(-c2ccc(F)cc2)oc1N1CCCC1	-1.49%
Cc1cc(NC(=O)COC(=O)C2CCN(S(=O)(=O)c3cccc(Cl)c3Cl)CC2)no1	-1.85%
Cc1nc(SCc2ccc(O)c([N+](=O)[O-])c2)c([N+](=O)[O-])[nH]1	-2.21%
Cc1cccc(C)c1NC(=O)C1C2C=CC(C2)C1C(=O)O (stereo not drawn)	9.48%
COc1ccccc1-c1nnc(NC(=O)c2ccc(S(=O)(=O)N(C)Cc3ccccc3)cc2)o1	-0.307%
COc1ccc(/C(C)=N/Nc2nc3ccccc3nc2C)cc1	-10.8%
COc1ccc(NC(=O)C(c2ccc(C)cc2)N(C)C(=O)c2cnccn2)cc1 (stereo not drawn)	-35.2%
COCC(=O)Nc1ccc(N2CCN(c3ccccc3)CC2)c(F)c1	22.6%
